The full ranking holds about 16,000 sequences; the median of “Z-score” is about -0.37, and the highest 2% start at about 3.2. The list shows a part of the results.
system: RBM10 RRM1-ZnF (GST-tagged construct); experiment: RNAcompete 7-mer binding Z-score; higher = stronger binding preference
Outline: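 Each heptamer motif was given a one-sided Z-score for enrichment across the probes that contained it. GST-tagged RBM10 constructs (20 pmol) were combined with 1.5 nmol of a designed pool of 241 399 RNAs of up to 41 nt, transcribed from microarray-derived DNA templates. Binding took place in 1 ml Hepes pH 7.8 buffer containing KCl, NaCl, glycerol, DTT, BSA and glutathione Sepharose beads for 30 min at 4°C. After four 2-min washes at 4°C, bound RNA was identified by microarray hybridisation.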

Sequence	RNAcompete 7-mer binding Z-score
AUACCCU	-0.763
AAUCAGU	-0.305
CGUUGCA	-0.652
AAUUUGG	0.621
AUAGAGU	0.322
AUAGGAU	1.58
ACCGGAA	-0.00571
AGUUUUC	-0.675
UUCCGCU	-0.646
ACCUGCA	-0.74
UCUACCG	-0.727
GAACCAU	-0.629
UGUACCA	-0.552
UGGACAA	0.667
GACACUU	-0.782
GUCAAAG	-0.00571
AUGGAUA	2.89
CUGACUC	-0.655
GGGGGAA	3.15
AUGUUCU	-0.834
UUUUCAA	-0.821
ACGGCGG	1.02
CACUGUC	-0.655
ACUGCCC	-0.467
GGUGUAC	1.48

Sequence	RNAcompete 7-mer binding Z-score
UGUUCCA	-0.668
GAAAAGG	4.26
GCUAUCG	-0.47
UCAACUC	-0.733
AAGAUAC	-0.318
GACGCCU	-0.73
CCAUCCG	-0.681
CUACUUG	-0.746
AAUCCCU	-0.704
GAUGUCG	0.0658
AGAUUGG	2.01
GUACGAU	0.0755
CUGCCUU	-0.831
CUCUGAA	-0.727
AUCCAGG	0.144
UCAAUGC	-0.636
AGCGAAC	-0.171
GGUUAAA	1.3
CAUCACC	-0.795
GUGGCAG	1.48
ACCCGGG	0.0398
UACACAC	-0.552
CCCCAUU	-0.837
UCAGGCC	-0.383
UGCUCUU	-0.815

Sequence	RNAcompete 7-mer binding Z-score
UAGCCCA	-0.691
GCGGAAU	1.29
UUCUAUC	-0.841
UGGCAUA	0.257
UUAAGAC	-0.578
AUCCUGU	-0.883
GCGAGUC	0.069
CCAGCCC	-0.0934
GAUGCCG	-0.246
ACGACCU	-0.873
UCCGCAU	-0.74
CUGGUGG	1.64
UGCAUGC	-0.639
CCGAGGU	0.634
AACUAUC	-0.724
AUAUGCA	-0.0609
GCGGAUC	0.813
AGGAUUG	1.5
GAGUUAC	-0.123
GCGGUAC	0.28
CAACGUC	-0.516
UCCGACU	-0.818
ACCUCUA	-0.795
AGUAACA	-0.0285
UAGUUGU	-0.435

Sequence	RNAcompete 7-mer binding Z-score
CACUAGC	-0.633
UAUAACG	-0.597
GAAUGGA	4.02
AGGCCUG	-0.581
AUGUGCA	0.313
AAAAACA	-0.136
CUUUAUC	-0.88
GUCAGAC	-0.392
CUUGUGA	-0.662
AACAACG	-0.347
AAGAGAA	0.391
GUACUUU	-0.883
UACUAAU	-0.587
GUGCUGG	1.83
UCCUGAC	-0.841
CACGUAG	0.0398
CACAUCG	-0.558
GCCGCGC	-0.35
AAGAUCG	-0.0837
UAAGAAG	0.735
UUGUCCG	-0.623
UGGGGCU	2.3
AUGUGUA	0.608
GCACCAA	-0.425
GCGCUGG	0.735

Sequence	RNAcompete 7-mer binding Z-score
GUAAUGA	0.173
AACCCCG	-0.506
UACGGAG	0.93
UCCCGCU	-0.668
CAGAACU	-0.483
CUGCCCU	-0.571
AGGUGUG	2.53
CGGCACU	-0.292
GAACACU	-0.438
AUUUUAC	-0.902
GUUUGCC	-0.214
UGUUAGU	-0.272
AUAUGAC	-0.357
GAAGGCU	0.621
CACGGCA	0.00404
GUUUGGC	0.534
GAGCAUC	-0.22
CGAACGU	-0.373
GCAGUUU	-0.519
AUUUCUC	-0.818
GACGGUG	1.83
GCGGCCG	0.095
GCCGGUG	0.261
CGCCCUU	-0.623
UUCGAGU	-0.581

Sequence	RNAcompete 7-mer binding Z-score
GAUGGAG	3.52
CUCUCUA	-0.746
ACCUUGC	-0.896
GUGGUAG	2.2
UAUAGAG	0.205
UUAUAUA	-0.418
UCCGGGA	0.358
CAGGGUC	1.09
AAGAACC	-0.526
GUUCGCU	-0.532
GUUGCCU	-0.279
CUAAGGA	0.365
GGCUCAU	-0.318
GUCGGUA	0.781
CGGUCUU	-0.607
AUCUCUU	-0.88
UGACAAG	0.222
UGCGGCC	-0.292
CUGCGGU	0.134
UGGCCCU	-0.217
GGCACUU	-0.347
UCCGUCU	-0.802
CUACGGG	1.18
UUAUAGU	-0.392
AACGUUC	-0.617

Sequence	RNAcompete 7-mer binding Z-score
GGUGAAC	1.94
GGAGACA	1.95
AGGGAUU	2.3
GUAGAUU	0.332
GAGCGGG	3.61
CGCCGAU	-0.665
UGUAUUG	-0.168
CCUGAGU	-0.607
AACAGCU	-0.574
UCCAAAG	-0.633
CUGCAAA	-0.552
AGAAGAC	0.0853
AAGAAUU	-0.217
AGCUAAC	-0.298
UUAUGAG	-0.184
ACCUGCU	-0.902
ACCUCCU	-0.834
AAGUCAG	-0.103
UAGGUCG	0.774
CCAAUAC	-0.818
AUGGCCG	-0.022
CAUGACC	-0.792
CGUAGGA	1.02
AGUAGCC	-0.314
GCGAGCC	0.153

Sequence	RNAcompete 7-mer binding Z-score
AAAAGGA	3.01
UUAAGCU	-0.707
UUCCGUG	-0.503
GCUGACC	-0.425
UCGCGAG	-0.158
UAGGACG	1.62
CCUACGA	-0.535
GGAACGC	0.927
CCCCUAA	-0.535
CUCCACC	-0.519
GCACUGC	-0.207
ACAGCCG	-0.597
UGGCGGC	0.959
AGUGAUA	0.511
GGAGUGC	2.04
AGGGGUA	3.69
CUGAUGA	-0.295
UCUGGCA	-0.707
UGUUGUA	-0.0512
AAAUUAG	-0.106
GCGCUGC	-0.0772
UCUAUUC	-0.737
GUGGUUU	1.68
CUGGGAG	1.66
UGGCUGA	0.449

Sequence	RNAcompete 7-mer binding Z-score
GCUUGCG	-0.327
ACCCAUC	-0.896
GCUGCCG	-0.171
AGAACCC	-0.889
GACCCCC	-0.386
UGAACCG	-0.422
UUCUGUA	-0.652
CACACCA	-0.558
GUCCGGC	-0.659
GCCUGGC	-0.305
CACCCGA	-0.48
CCUCACU	-0.649
UUCCAGA	-0.675
CGUUCCC	-0.704
UGGUCAA	0.248
GGGUUAA	3.01
GCUCUCG	-0.285
GGGAAAA	3.4
UACCUGU	-0.964
CCCCAGG	-0.116
CUUCGAA	-0.88
UGUAUUU	-0.724
AAAUCCU	-0.795
AGCCGGU	-0.259
UGAGAGA	0.917

Sequence	RNAcompete 7-mer binding Z-score
AAUUACG	-0.373
AAUCGGA	0.537
CAGAUAG	-0.0642
UCCUAAA	-0.75
UAUGGCA	0.413
CGCGCAA	-0.597
GUUUCAU	-0.574
UCAUGCU	-0.597
CAGCAUC	-0.756
GAGGUGU	2.37
CGCAUAA	-0.47
GUUGCCC	-0.259
ACUAGAC	-0.483
UAUUUCG	-0.798
AAAGACG	0.628
AUUUAAU	-0.672
CUCGGUU	-0.363
UUUGUCA	-0.626
UAACGGA	0.836
ACGGUCG	-0.0252
GUCGACG	0.0658
UUACUCG	-0.6
CCUGGCC	-0.555
UUCUAGA	-0.714
AAAGCUG	-0.136

Sequence	RNAcompete 7-mer binding Z-score
UAGGGGA	3.71
GCCCCCA	-0.314
AGUUUGG	1.35
UCGCCUC	-0.694
UAUGUGG	1.19
AACAGUA	-0.0999
AAGUCUA	-0.506
GGCUCAC	-0.142
CGUUUAG	-0.636
UUUACAA	-0.626
GUUACAA	0.452
CAAACCC	-0.831
GGCGUUC	0.0333
CUAAAUG	-0.223
UAUACGU	-0.357
AAACGUC	-0.688
GUGCCUC	-0.415
CCAUAAG	-0.701
AAAAUGU	-0.233
GCUGCGU	-0.399
GGGCAUU	1.04
AUGUAGG	2.28
UCUUUUU	-0.789
UGUGGUC	0.319
CUGUCCU	-0.746

Sequence	RNAcompete 7-mer binding Z-score
CGUGCAG	-0.11
AUGAGUG	1.18
CUGCGGA	0.199
UUCAAGA	-0.448
UUCUUCC	-0.756
GGGGUCU	1.38
AGGAACU	-0.0155
GUCGCGU	-0.0967
UUCAGGA	0.0593
AAUCCAA	-0.766
CCGUUUU	-0.967
AAGGCGG	2.44
ACAGAGG	1.59
UGGCGCG	0.833
UUACAUC	-0.795
AGGAGGU	2.47
UGUAACA	-0.0479
UGAGGUU	2.02
UCGGUAC	-0.0122
AGAUGCG	0.111
UAGAAAA	0.082
AGCGCAC	-0.279
CACUAAA	-0.493
UCCUGCG	-0.503
AGAUAAU	-0.204

Sequence	RNAcompete 7-mer binding Z-score
GGAUCGG	2.14
UCUGUAC	-0.717
UGUUCUC	-0.746
CCACUGU	-0.607
CCCUACC	-0.655
UUUCGCA	-0.834
AUGACAU	-0.259
UCGCCCU	-0.756
AAAGUCA	-0.298
GGGGCGG	2.7
GACUCCU	-0.763
AGUGCGA	0.742
UCACAUA	-0.675
GAAACAA	0.0853
AUAGACG	0.261
CUUCAAG	-0.574
UUGACCA	-0.591
AUUGAUG	0.238
CAAAGAG	0.225
GACGAUA	-0.113
CGCACGA	-0.132
AAGAUUC	-0.522
GGAGAGC	1.84
CGGCUGG	0.576
UCGAGUG	0.0138

Sequence	RNAcompete 7-mer binding Z-score
CCGUAGA	-0.409
UCCGUCC	-0.746
UGGUCGC	0.0105
AUCUGUA	-0.581
UAUUAUA	-0.386
UGGCAGU	0.283
AGGCAAA	0.309
UCCCGGC	-0.561
GUGCUCC	-0.24
CGCCGCU	-0.578
CGUUGUA	-0.363
CAUAGAG	0.0235
AAGAUAA	-0.0707
CUUAGGG	0.472
GGAUCCA	-0.223
GCCUUUU	-0.984
GCAUACG	0.0365
GGUCUUU	-0.422
CAGGAGU	1.51
GGAGCAC	1.51
UAUCGUA	-0.396
CCAAUCC	-0.837
AGGGUAA	4.13
CUUCUCA	-0.889
UGUCCGG	-0.0869

Sequence	RNAcompete 7-mer binding Z-score
GUCCAUG	-0.422
GGUUCCC	0.0138
ACGAGUC	-0.496
UACAACC	-0.545
ACUCAGA	-0.539
CACACAU	-0.584
UGCGCAA	-0.438
UGGAGAU	1.26
GCGAUUA	-0.197
UAUGCCU	-0.776
CAGCAUU	-0.604
CUCAACG	-0.701
CACAAUG	-0.474
UCCUCAG	-0.678
CCGUCGA	-0.311
GGCUGAG	1.3
GAUGUUA	-0.116
